Results from patent US20220267438A1 (Janssen / Centocor, published 2022).

T1: BCMW37 (recombinant human BCMA antigen) (human, UniProt Q02223 1-54, limits assumed)
T1 construct: also called BCMA BCMW37 chain; human BCMA (SPR antigen)
T1 sequence (looked up): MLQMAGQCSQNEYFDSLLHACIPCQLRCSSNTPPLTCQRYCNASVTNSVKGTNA

T2: human BCMA (B cell maturation antigen, TNFRSF17) on cells (human, UniProt Q02223 1-184)
T2 construct: whole, on cells; Target on H929 or MM.1R GPRC5D knockout cells, K562 cells expressing human BCMA, HEK293 cells of the cell microarray, and BCMA-only lymphoma lines; also called CD269; surface BCMA
T2 sequence (looked up): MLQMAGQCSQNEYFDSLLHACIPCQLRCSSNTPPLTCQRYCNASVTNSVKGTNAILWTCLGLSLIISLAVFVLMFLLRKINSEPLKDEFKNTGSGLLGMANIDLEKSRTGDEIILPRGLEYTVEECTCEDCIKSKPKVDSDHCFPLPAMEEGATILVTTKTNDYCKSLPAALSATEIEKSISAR

B1: BGCB491 (other)
heavy: QVQLQQSGPRLVRPSQTLSLTCAISGDSVFNNNAAWSWIRQSPSRGLEWLGRTYYRSKWLYDYAVSVKSRITVNPDTSRNQFTLQLNSVTPEDTALYYCARGYSSSFDYWGQGTLVTVSSASTKGPSVFPLAPSSKSTSGGTAALGCLVKDYFPEPVTVSWNSGALTSGVHTFPAVLQSSGLYSLSSVVTVPSSSLGTQTYICNVNHKPSNTKVDKKVEPKSCDKTHTCPPCPAPEAAGGPSVFLFPPKPKDTLMISRTPEVTCVVVSVSHEDPEVKFNWYVDGVEVHNAKTKPREEQYNSTYRVVSVLTVLHQDWLNGKEYKCKVSNKALPAPIEKTISKAKGQPREPQVYTLPPSREEMTKNQVSLSCAVKGFYPSDIAVEWESNGQPENNYKTTPPVLDSDGSFFLVSKLTVDKSRWQQGNVFSCSVMHEALHNRFTQKSLSLSPGKGGGGSGGGGSGGGGSGGGGS[letters of about 100 residues not shown]QFPHTFGQGTKLEIKGGSEGKSSGSGSESKSTGGSQVTLKESGPVLVKPTETLTLTCTVSGFSLTNIRMSVSWIRQPPGKALEWLAHIFSNDEKSYSTSLKSRLTISRDTSKSQVVLTLTNVDPVDTATYYCARMRLPYGMDVWGQGTTVTVSS
light: QSALTQPASVSGSPGQSITISCTGTSSNIGTYKFVSWYQQHPDKAPKVLLYEVSKRPSGVSSRFSGSKSGNTASLTISGLQAEDQADYHCVSYAGSGTLLFGGGTKLTVLGQPKAAPSVTLFPPSSEELQANKATLVCLISDFYPGAVTVAWKADSSPVKAGVETTTPSKQSNNKYAASSYLSLTPEQWKSHRSYSCQVTHEGSTVEKTVAPTECS
chain: EIVLTQSPGTLSLSPGERATLSCRASQSISSSFLTWYQQKPGQAPRLLIYGASSRATGIPDRFSGGGSGTDFTLTISRLEPEDFAVYYCQHYGSSPMYTFGQGTKLEIKGGSEGKSSGSGSESKSTGGS[letters of about 100 residues not shown]DEGYSSGHYYGMDVWGQGTTVTVSSEPKSSDKTHTCPPCPAPEAAGGPSVFLFPPKPKDTLMISRTPEVTCVVVSVSHEDPEVKFNWYVDGVEVHNAKTKPREEQYNSTYRVVSVLTVLHQDWLNGKEYKCKVSNKALPAPIEKTISKAKGQPREPQVYTLPPSREEMTKNQVSLWCLVKGFYPSDIAVEWESNGQPENNYKTTPPVLDSDGSFFLYSKLTVDKSRWQQGNVFSCSVMHEALHNHYTQKSLSLSPGK
notes: Trispecific IgG1 antibody (L234A, L235A, D265S); Heavy chain 1 = anti-CD3 (CD3B376) Fab heavy chain, hole and RF mutations, with C-terminal anti-GPRC5D scFv (GC5B680); Heavy chain 2 = anti-BCMA scFv (BCMB519) - Fc knob; also called JNJ-79635322; BCMA×GPRC5D×CD3 trispecific mAb
B2: BGCB463 (other)
heavy: QVQLQQSGPRLVRPSQTLSLTCAISGDSVFNNNAAWSWIRQSPSRGLEWLGRTYYRSKWLYDYAVSVKSRITVNPDTSRNQFTLQLNSVTPEDTALYYCARGYSSSFDYWGQGTLVTVSSASTKGPSVFPLAPSSKSTSGGTAALGCLVKDYFPEPVTVSWNSGALTSGVHTFPAVLQSSGLYSLSSVVTVPSSSLGTQTYICNVNHKPSNTKVDKKVEPKSCDKTHTCPPCPAPEAAGGPSVFLFPPKPKDTLMISRTPEVTCVVVSVSHEDPEVKFNWYVDGVEVHNAKTKPREEQYNSTYRVVSVLTVLHQDWLNGKEYKCKVSNKALPAPIEKTISKAKGQPREPQVYTLPPSREEMTKNQVSLSCAVKGFYPSDIAVEWESNGQPENNYKTTPPVLDSDGSFFLVSKLTVDKSRWQQGNVFSCSVMHEALHNRFTQKSLSLSPGK
light: B1 light
chain: [letters of about 100 residues not shown]QFPHTFGQGTKLEIKGGSEGKSSGSGSESKSTGGSQVTLKESGPVLVKPTETLTLTCTVSGFSLTNIRMSVSWIRQPPGKALEWLAHIFSNDEKSYSTSLKSRLTISRDTSKSQVVLTLTNVDPVDTATYYCARMRLPYGMDVWGQGTTVTVSSEPKSSDKTHTCPPCPAPEAAGGPSVFLFPPKPKDTLMISRTPEVTCVVVSVSHEDPEVKFNWYVDGVEVHNAKTKPREEQYNSTYRVVSVLTVLHQDWLNGKEYKCKVSNKALPAPIEKTISKAKGQPREPQVYTLPPSREEMTKNQVSLWCLVKGFYPSDIAVEWESNGQPENNYKTTPPVLDSDGSFFLYSKLTVDKSRWQQGNVFSCSVMHEALHNHYTQKSLSLSPGKGGSEGKSSGSGSESKSTGGSEIVLTQSPGTLSLSPGERATLSCRASQSISSSFLTWYQQKPGQAPRLLIYGASSRATGIPDRFSGGGSGTDFTLTISRLEPEDFAVYYCQHYGSSPMYTFGQGTKLEIKGGSEGKSSGSGSESKSTGGS[letters of about 100 residues not shown]DEGYSSGHYYGMDVWGQGTTVTVSS
notes: Trispecific IgG1 antibody (L234A, L235A, D265S); Heavy chain 1 = anti-CD3 (CD3B376) Fab heavy chain with hole and RF mutations; also called BGCB463.003; BGCB463.004

Tests used:
[1] = target: T1, BCMW37 (recombinant human BCMA antigen); assay: SPR; antigen BCMW37
[2] = target: T2, human BCMA (B cell maturation antigen, …); assay: flow cytometry, H929-GPRC5D-KO cells (BCMA arm), 1 h 37C; Run 4
Experimental: Flow cytometry was used to evaluate the BCMA and GPRC5D arm binding of BGCB491 in vitro. BGCB491 and isotype control were tested on a panel of H929-WT, H929-BCMA-KO, H929-GPRC5D-KO, and H929-BCMA/GPRC5D-KO cell lines after 1-hour 37° C. incubation.

[3] = target: T3, human GPRC5D (G-protein coupled receptor family C group 5 member D) on cells (human, UniProt Q9NZD1 1-345); assay: flow cytometry, H929 BCMA KO cells, 1 h 37C; Run 1
T3 construct: Target on H929 or MM.1R BCMA knockout cells, K562 cells expressing human GPRC5D and HEK293 cells of the cell microarray
Experimental: (§1) First, FACS-based binding for GPRC5D and BCMA binding arms of the trispecific molecule was determined by measuring the effective concentration (EC) range from a dose-response curve using a 4-parameter fit at 37° C. for 1 hr. This was assessed using an H929 suite of cells (WT, GPRC5D-KO, BCMA-KO, and GPRC5D/BCMA KO), and a similar MM.1R suite. Cell based EC₅₀ is approximately 13 nM for WT H929 (FIGS. 2A-2D, Table 7) and 2.4 nM for WT MM.1R (FIGS. 3A-3D, Table 8). A clear avidity affect is observed as EC₅₀ and Bmax are both reduced in GPRC5D-KO and BCMA-KO lines which test monovalent binding of target binding arms (Table 7). Next, cell-based EC₅₀ was determined for the CD3-binding Fab arm using purified Pan T cells from three random donors. […] Next, dose responsive binding was assessed at 4° C. to remove any potential biological effects. As shown in FIGS. 5A-5C, binding is stronger (50-100 nM) at 4° C., compared to 37° C., which may indicate internalization. Additionally, two expression lots of BGCB463 (BGCB463.003 from transient transfection and BGCB463.004 from a stable transfection pool), were directly compared with binding to H929, MM.1R, and Pan T cells and no differences were noted (FIGS. 6A-6C).

[4] = target: T3, human GPRC5D (G-protein coupled …); assay: flow cytometry, H929 BCMA KO cells, 1 h 37C; Run 3
Experimental: as §1

[5] = target: T2, human BCMA (B cell maturation antigen, …); assay: flow cytometry, K562 cells expressing human BCMA, 1 h 37C
Experimental: (§2) FIGS. 9A-E. BGCB463 (circles) or negative control B23B251 (triangles) were all incubated with K562 cells expressing human GPRC5D (FIG. 9A), human BCMA (FIG. 9B), cynomolgus GPRC5D (FIG. 9C) or cynomolgus BCMA (FIG. 9D) for 1 hr at 37° C. at a starting concentration of 2 μM. After secondary detection with AF647-anti-human IgG, the MFI signal was analyzed to generate an EC₅₀ and EC₉₀ (FIG. 9E). Data are representative of two independent experiments.
(§3) The GPRC5D (i.e., GC5B680) and BCMA binding arms were assessed for cross-reactivity to cynomolgus monkey as part of the BGCB463 molecule, which uses the identical binding arms as BGCB491. Cross reactivity to cynomolgus monkeys was profiled for both target-binding scFv arms using FACS-based cell binding at 37° C. for 1 hour with K562 stably expressing human or cynomolgus monkey GPRC5D or BCMA. The cell-based EC₅₀ value for the GC5B680 scFv arm was approximately 30 nM against human GPRC5D-expressing cells and about 10-fold weaker (approximately 400 nM) on cynomolgus monkey GPRC5D-expressing cells.

[6] = target: T2, human BCMA (B cell maturation antigen, …); assay: flow cytometry, MM.1R GPRC5D KO cells, 1 h 37C; Run 4
[7] = target: T4, cynomolgus GPRC5D on K562 cells (cynomolgus monkey); assay: flow cytometry, K562 cells expressing cynomolgus GPRC5D, 1 h 37C
T4 construct: whole, on cells; also called cyno GPRC5D
Experimental: as §2, §3

[8] = target: T3, human GPRC5D (G-protein coupled …); assay: flow cytometry, H929 BCMA KO cells, 1 h 37C; average of runs
Experimental: as §1

[9] = target: T5, human CD3 (CD3ε of the TCR/CD3 complex) on primary human pan T cells (human, UniProt P07766); assay: flow cytometry, human pan T cells, Donor 1, 1 h 37C; average of runs
T5 construct: whole, on cells; On T cells CD3ε stands in the whole TCR/CD3 complex
Experimental: (§4) For binding of BGCB463 to human and cynomolgus Pan T cells, three human donors (Hemacare) were selected, quickly thawed, resuspended, and aliquoted into a 96-well plate at 1×10⁶ cells/mL. Cells were then washed, Fc blocked if necessary (Innovex), and stained with viability dye (Invitrogen). BGCB463 and its corresponding isotype (B23B251) were diluted in complete media to an initial concentration of 2 μM and 1:3 serial dilutions in duplicate were performed for a dose-response curve. The cells were incubated with molecules at 4° C. or 37° C. for 1 hour. When necessary, incubation with 90% human serum (Sigma) was also performed as described above.
(§5) First, FACS-based binding for GPRC5D and BCMA binding arms of the trispecific molecule was determined by measuring the effective concentration (EC) range from a dose-response curve using a 4-parameter fit at 37° C. for 1 hr. This was assessed using an H929 suite of cells (WT, GPRC5D-KO, BCMA-KO, and GPRC5D/BCMA KO), and a similar MM.1R suite. Cell based EC₅₀ is approximately 13 nM for WT H929 (FIGS. 2A-2D, Table 7) and 2.4 nM for WT MM.1R (FIGS. 3A-3D, Table 8). […] Next, cell-based EC₅₀ was determined for the CD3-binding Fab arm using purified Pan T cells from three random donors. […] Next, dose responsive binding was assessed at 4° C. to remove any potential biological effects. […]

[10] = target: T5, human CD3 (CD3ε of the TCR/CD3 complex) …; assay: flow cytometry, human pan T cells, Donor 2, 1 h 37C; average of runs
Experimental: as §4, §5

T3 sequence (Q9NZD1 whole entry): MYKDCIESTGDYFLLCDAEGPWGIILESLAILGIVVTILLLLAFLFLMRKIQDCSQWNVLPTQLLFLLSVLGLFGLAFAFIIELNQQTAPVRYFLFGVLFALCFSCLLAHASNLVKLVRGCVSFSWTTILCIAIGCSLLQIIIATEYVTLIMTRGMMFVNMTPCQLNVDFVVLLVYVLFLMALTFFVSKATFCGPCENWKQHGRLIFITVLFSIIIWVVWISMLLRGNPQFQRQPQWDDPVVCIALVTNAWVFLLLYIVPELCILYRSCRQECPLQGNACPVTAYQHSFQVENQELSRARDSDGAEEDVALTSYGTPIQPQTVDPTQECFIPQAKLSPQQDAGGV
T5 sequence (P07766 23-207, one chain of several): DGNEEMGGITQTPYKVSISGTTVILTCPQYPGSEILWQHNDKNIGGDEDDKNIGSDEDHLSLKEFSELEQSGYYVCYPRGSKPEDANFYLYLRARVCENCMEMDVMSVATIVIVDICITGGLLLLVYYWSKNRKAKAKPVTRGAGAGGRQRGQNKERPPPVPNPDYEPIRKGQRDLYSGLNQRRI

| Binder | Kd [1] | EC50 [2] | EC50 [3] | EC50 [4] | EC50 [5] | EC50 [6] | EC50 [7] | EC50 [8] | EC50 [9] | EC50 [10] |
| --- | --- | --- | --- | --- | --- | --- | --- | --- | --- | --- |
| B1 | 0.21 nM | 50 nM | – | – | – | – | – | – | – | – |
| B2 | – | – | 195 nM | 65.2 nM | ~145 nM | 490 nM | ~400 nM | 110 nM | 344 nM | 290 nM |
